Laboratory results taken from paper PMC12820563, “FoxP3 forms a head-to-head dimer in vivo and stabilizes its multimerization on adjacent microsatellites”.
The list shows a part of the results.

Biological target: T1, MBP-FoxP1dN (Mus musculus, UniProt P58462 326-579)
T1 sequence: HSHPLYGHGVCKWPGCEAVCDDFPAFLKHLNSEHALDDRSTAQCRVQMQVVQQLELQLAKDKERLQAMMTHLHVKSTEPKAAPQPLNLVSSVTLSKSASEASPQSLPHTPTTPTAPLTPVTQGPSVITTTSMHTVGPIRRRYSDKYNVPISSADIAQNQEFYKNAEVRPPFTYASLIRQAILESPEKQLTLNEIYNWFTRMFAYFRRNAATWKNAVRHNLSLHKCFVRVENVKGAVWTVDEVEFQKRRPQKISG
Assay: PD-seq (MBP pull-down with sequencing); 20 mM Tris-HCl pH 7.5, 100 mM NaCl, 1.5 mM MgCl2, 0.4 uM protein, 0.1 uM dsDNA library, 30 min, room temperature, amylose pull-down; high values mean tight binding
Conditions: protein: recombinant; tags: His6-MBP; chain copies: 2; dsDNA, one strand shown
Method in brief: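 A degenerate double-stranded DNA library, filled in with Klenow, was added at 0.1 µM to 0.4 µM His6-MBP-tagged mouse FoxP3 or FoxP1 fragment lacking the N-terminus, expressed in E. coli. Incubation lasted 30 min at room temperature in Tris pH 7.5 buffer with NaCl and MgCl2, after which complexes were collected on amylose resin, washed three times, digested with proteinase K to free the DNA, barcoded by PCR and sequenced by Illumina. Binding is the pooled-replicate reads-per-million enrichment of pull-down over input.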

Going from “GATGATTGTTCTCCCAGCTGATGAATTAGGGTATTCGAGTAAACAAATTTTCCTAATCTTTCTGTTCAAGCGCCATCTAC” to “GATGATTGTTCTCCCAGCTGATGAATTTCAGTAGTCGAGTAAACAAATTTTCCTAATCTTTCTGTTCAAGCGCCATCTAC”, the binding signal rises from 0.894 RPM ratio (pull-down/input) to 0.904 RPM ratio (pull-down/input).

Going from “GATGATTGTTCTCCCAGCTGATGAATTTTCGACATCGAGTAAACAAATTTTCCTAATCTTTCTGTTCAAGCGCCATCTAC” to “GATGATTGTTCTCCCAGCTGATGAATTAGCTGACTCGAGTAAACAAATTTTCCTAATCTTTCTGTTCAAGCGCCATCTAC”, the binding signal falls from 1.07 RPM ratio (pull-down/input) to 0.798 RPM ratio (pull-down/input).

First: GATGATTGTTCTCCCAGCTGATGAATTCAGGTGTTCGAGTAAACAAATTTTCCTAATCTTTCTGTTCAAGCGCCATCTAC
Second: GATGATTGTTCTCCCAGCTGATGAATTGAAAGCCTCGAGTAAACAAATTTTCCTAATCTTTCTGTTCAAGCGCCATCTAC
The binding signal of the first is higher: 0.917 RPM ratio (pull-down/input) for the first, 0.795 RPM ratio (pull-down/input) for the second.

Compared with “GATGATTGTTCTCCCAGCTGATGAATTTAATAAGTCGAGTAAACAAATTTTCCTAATCTTTCTGTTCAAGCGCCATCTAC”, “GATGATTGTTCTCCCAGCTGATGAATTTCCCAATTCGAGTAAACAAATTTTCCTAATCTTTCTGTTCAAGCGCCATCTAC” is lower in binding signal: 1.02 RPM ratio (pull-down/input) for the first, 0.983 RPM ratio (pull-down/input) for the second.

Going from “GATGATTGTTCTCCCAGCTGATGAATTCGGGAAGTCGAGTAAACAAATTTTCCTAATCTTTCTGTTCAAGCGCCATCTAC” to “GATGATTGTTCTCCCAGCTGATGAATTCTAGCGGTCGAGTAAACAAATTTTCCTAATCTTTCTGTTCAAGCGCCATCTAC”, the binding signal rises from 0.775 RPM ratio (pull-down/input) to 0.797 RPM ratio (pull-down/input).

Compared with “GATGATTGTTCTCCCAGCTGATGAATTGCTACAATCGAGTAAACAAATTTTCCTAATCTTTCTGTTCAAGCGCCATCTAC”, “GATGATTGTTCTCCCAGCTGATGAATTCAGGCCGTCGAGTAAACAAATTTTCCTAATCTTTCTGTTCAAGCGCCATCTAC” is lower in binding signal: 1.5 RPM ratio (pull-down/input) for the first, 0.83 RPM ratio (pull-down/input) for the second.

Compared with “GATGATTGTTCTCCCAGCTGATGAATTATCTGCTTCGAGTAAACAAATTTTCCTAATCTTTCTGTTCAAGCGCCATCTAC”, “GATGATTGTTCTCCCAGCTGATGAATTCCTAGGGTCGAGTAAACAAATTTTCCTAATCTTTCTGTTCAAGCGCCATCTAC” is lower in binding signal: 0.893 RPM ratio (pull-down/input) for the first, 0.727 RPM ratio (pull-down/input) for the second.

First: GATGATTGTTCTCCCAGCTGATGAATTACGTCAGTCGAGTAAACAAATTTTCCTAATCTTTCTGTTCAAGCGCCATCTAC
Second: GATGATTGTTCTCCCAGCTGATGAATTAGGATGCTCGAGTAAACAAATTTTCCTAATCTTTCTGTTCAAGCGCCATCTAC
The binding signal of the first is lower: 1.02 RPM ratio (pull-down/input) for the first, 1.32 RPM ratio (pull-down/input) for the second.

First: GATGATTGTTCTCCCAGCTGATGAATTATTAACCTCGAGTAAACAAATTTTCCTAATCTTTCTGTTCAAGCGCCATCTAC
Second: GATGATTGTTCTCCCAGCTGATGAATTGCAAACCTCGAGTAAACAAATTTTCCTAATCTTTCTGTTCAAGCGCCATCTAC
The binding signal of the first is lower: 1.06 RPM ratio (pull-down/input) for the first, 1.22 RPM ratio (pull-down/input) for the second.

First: GATGATTGTTCTCCCAGCTGATGAATTAAACGTATCGAGTAAACAAATTTTCCTAATCTTTCTGTTCAAGCGCCATCTAC
Second: GATGATTGTTCTCCCAGCTGATGAATTGTCCTATTCGAGTAAACAAATTTTCCTAATCTTTCTGTTCAAGCGCCATCTAC
The binding signal of the first is higher: 1.09 RPM ratio (pull-down/input) for the first, 1.07 RPM ratio (pull-down/input) for the second.

First: GATGATTGTTCTCCCAGCTGATGAATTCCCGACTTCGAGTAAACAAATTTTCCTAATCTTTCTGTTCAAGCGCCATCTAC
Second: GATGATTGTTCTCCCAGCTGATGAATTGCACTATTCGAGTAAACAAATTTTCCTAATCTTTCTGTTCAAGCGCCATCTAC
The binding signal of the first is lower: 0.806 RPM ratio (pull-down/input) for the first, 1.28 RPM ratio (pull-down/input) for the second.

Going from “GATGATTGTTCTCCCAGCTGATGAATTAGTGCAATCGAGTAAACAAATTTTCCTAATCTTTCTGTTCAAGCGCCATCTAC” to “GATGATTGTTCTCCCAGCTGATGAATTCAAAAGTTCGAGTAAACAAATTTTCCTAATCTTTCTGTTCAAGCGCCATCTAC”, the binding signal falls from 1.36 RPM ratio (pull-down/input) to 0.849 RPM ratio (pull-down/input).

Going from “GATGATTGTTCTCCCAGCTGATGAATTAATACCTTCGAGTAAACAAATTTTCCTAATCTTTCTGTTCAAGCGCCATCTAC” to “GATGATTGTTCTCCCAGCTGATGAATTGCTTTTCTCGAGTAAACAAATTTTCCTAATCTTTCTGTTCAAGCGCCATCTAC”, the binding signal rises from 0.981 RPM ratio (pull-down/input) to 1.32 RPM ratio (pull-down/input).

First: GATGATTGTTCTCCCAGCTGATGAATTTATGTCCTCGAGTAAACAAATTTTCCTAATCTTTCTGTTCAAGCGCCATCTAC
Second: GATGATTGTTCTCCCAGCTGATGAATTTTTCTCGTCGAGTAAACAAATTTTCCTAATCTTTCTGTTCAAGCGCCATCTAC
The binding signal of the first is higher: 1.17 RPM ratio (pull-down/input) for the first, 0.979 RPM ratio (pull-down/input) for the second.

Going from “GATGATTGTTCTCCCAGCTGATGAATTCTCCTAGTCGAGTAAACAAATTTTCCTAATCTTTCTGTTCAAGCGCCATCTAC” to “GATGATTGTTCTCCCAGCTGATGAATTTCCTCATTCGAGTAAACAAATTTTCCTAATCTTTCTGTTCAAGCGCCATCTAC”, the binding signal rises from 0.791 RPM ratio (pull-down/input) to 0.924 RPM ratio (pull-down/input).

Going from “GATGATTGTTCTCCCAGCTGATGAATTGTCCTGCTCGAGTAAACAAATTTTCCTAATCTTTCTGTTCAAGCGCCATCTAC” to “GATGATTGTTCTCCCAGCTGATGAATTATGTAGTTCGAGTAAACAAATTTTCCTAATCTTTCTGTTCAAGCGCCATCTAC”, the binding signal rises from 0.933 RPM ratio (pull-down/input) to 1.23 RPM ratio (pull-down/input).
